Variants at the background level are over-represented here.
B1: TPR 5TU (parent)
chain: GGAUCUUCUCGAUCUAACAAAAAAGACAAAUCUGCCACAAAGCUUGAGAGCAUCUUCGGAUGCAGAGGCGGCAGCCUUCGGUGGCGCGAUAGCGCCAACGUUCUCAACUAUGACACGCAAAACGCGUGCUCCGUUGAAUGGAGUUUAUCAUG

Variants of: B1
Assay: polymerase ribozyme fitness, log enrichment relative to wild type (log ratio); higher = more active; in vitro selection for triplet polymerase activity
Summary of the method: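 Genotype fitness is the logarithm of its enrichment divided by wild-type enrichment, using inverse-variance-weighted averages of replicates. That logarithm is base 2. Enrichment was measured by Illumina sequencing of input and output libraries from one triplicate in vitro selection round, with frozen incubation at −7 °C, on PCR-built, transcribed mutant libraries of each subunit of a heterodimeric triplet polymerase ribozyme, retaining genotypes with ≥10 input reads and ≥1 read per output.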
With GGAUCUUCUCGAUCUAACAAAAAAGACAAAUCUGCCACAAAGCUUGAGAGUAUCUUCGGAUGCAGAGGCGGCAGCCUUCGGUGGCGCGAUAGCGUCAACGUUCUGAUCUAUGACACGAAAAACGCGUGCUCCGUUGAAUGGAGUUUAUCAUG [C51U C95U C105G A107U C118A] the “polymerase ribozyme fitness (log ratio)” value was ≤ -4.2.
In the case of GGAUCUUCUCGAUCUAACAAAAAAGACAAAUCUGCCACAAAGCUUGAGAGUAUCUUCGGAUGCAGAGGCGGCAGCCUUCGGUGGCGCGAUAGCGCUAACGUUCUCAACUAUGACACGCAAACCGCGUGCUCCGUUGAAUGGAGUUUAGCAUA [C51U C96U A122C U148G G152A], the “polymerase ribozyme fitness (log ratio)” value is reported as ≤ -4.2.
With GGAUCUUCUCGAUCUAACAAAAAAGACAAAUCUGCCACAAAGCUUGAGAGUAUCUUCGGAUGCAGAGGCGGCAGCCUUCGGUGGCGCGAUAGCCCCAACGUUCUCAACUAUGACACGCAAAACGCGCGCUCCGUGGAAUGGAGUUUAUCAUG [C51U G94C U127C U135G] the “polymerase ribozyme fitness (log ratio)” value was ≤ -4.2.
With GGAUCUUCUCGAUCUAACAAAAAAGACAAAUCUGCCACAAAGCUUGAGAGUAUCUUCGGAUGCAGAGGCGGCAGCCUUCGGUUGCGCGAUAGCGCCAACGUUCUCAACUAUGACACGCAAAACGCGUGCUCCGUUGAAUGGAGUUUAUCAUG [C51U G83U] the “polymerase ribozyme fitness (log ratio)” value was -0.266.
In the case of GGAUCUUCUCGAUCUAACAAAAAAGACAAAUCUGCCACAAAGCUUGAGAGUAUCUUCGGAUGCAGAGGCGACAGCCUUCGGUGGUGCGAUAGCGCCAAUGUUCUCAACUAUGACACGCAAAACGCGUGCUCCGUUUAAUGGAGUUUAUCAUG [C51U G71A C85U C99U G136U], the “polymerase ribozyme fitness (log ratio)” value is reported as ≤ -4.2.
In the case of GGAUCUUCUCGAUCUAACAAAAAAGACAAAUCUGCCACAAAGCUUGAGAGUAUCUUCCGAUGCAGAGGCGGCAGGCUUCGGUGGCGCGAUAGCGCCAACGUUCUCAACUAUGACACGCAAAACGCGUGCUCCGUUGAAUGGAGUUUAUCAUG [C51U G58C C75G], the “polymerase ribozyme fitness (log ratio)” value is reported as ≤ -4.2.
With GGAUCUUCUCGAUCUAACAAAAAAGACAAAUCUGCCACAAAGCUUGAGAGUAUCUUCGGAUGCAGAGGCGGCAGCCUUCGGUGGCGUGAUAGCGCCAACGUUAUCAACUAUGACAAGCAAAACGCGUGCUCCGUUGAAUGGAGUUUAUCAUG [C51U C87U C103A C116A] the “polymerase ribozyme fitness (log ratio)” value was -2.08.
For GGAUCUUCUCGAUCUAACAAAAAAGACAAAUCUGCCACAAAGCUUGAGAGUAUCUUCGGAUCCAGAGGCAGCAGCCUUCGGUGGCGCGAUAGCGCCAACGUUCUCAACUAUGACUAGCAAAACGCGUGCUCCGUUGAAUGGAGUUUAUCAUG [C51U G62C G70A A115U C116A], the “polymerase ribozyme fitness (log ratio)” value was ≤ -4.2.
With GGAUCUUCUCGAUCUAACAAAAAAGACAAAUCUGCCACAAAGCUUGAGAGUAUCUUCGGAUGCAGAGGCGGCAGCCUUCGGUGGCGGGAUAGCGCCAUCGUUCUCAACUAUGACACGCAAAACGCGUGCUCCGUUGAAUGGAGUUUAUCAUG [C51U C87G A98U] the “polymerase ribozyme fitness (log ratio)” value was ≤ -4.2.
With GGAUCUUCUCGAUCUAACAAAAAAGACAAAUCUGCCACAAAGCUUGAGAGUAUCUUCGGAUGCAGAGGCGAAAGCCUUCGGUGGCGCGAUAGCGUCAACGUUCUCAACUAUGACACGCAAAUCGCGUGCGCCGAUGAAUGGAGUUUAUCAUG [C51U G71A C72A C95U A122U U130G U134A] the “polymerase ribozyme fitness (log ratio)” value was ≤ -4.2.
With GGAUCUUCUCGAUCUAACAAAAAAGACAAAUCUGCCACAAAGCUUGAGAGUAUCUUCGGAUGCAGAGGCGGCAGCCUUCGGUGGCCCGAUAGCGCCAACGUUCUCAACUAUGACACGCAAAACGCGUGCUCCGUUGAAUGGAGUUUAUCAUG [C51U G86C] the “polymerase ribozyme fitness (log ratio)” value was -2.98.
For GGAUCUUCUCGAUCUAACAAAAAAGACAAAUCUGCCACAAAGCUUGAGAGUAUCUUCGGAUGCAGAGGCGGCAACCUUCGGUGGCGCCAUAGCGCCAACGUUCUCAACUAUGACACGCAAAACGCGUGCUCCGUUGAAUGGAAUUUAUCAUG [C51U G74A G88C G143A], the “polymerase ribozyme fitness (log ratio)” value was ≤ -4.2.
For GGAUCUUCUCGAUCUAACAAAAAAGACAAAUCUGCCACAAAGCUUGAGAGUAUCUUCGGAUGCAGAGGCGGCAGCCUUCGGUGGCGCGAUAGGGCCAACGUUCUCAACUAUGACAUGCAAAACGCGUGCUCCGUUGAAUGAAGUUUAUCAUG [C51U C93G C116U G141A], the “polymerase ribozyme fitness (log ratio)” value was -3.75.
For GGAUCUUCUCGAUCUAACAAAAAAGACAAAUCUGCCACAAAGCUUGAGAGUAUCUUCGGAUGCAGAGGCGGCAGCCUUCGGUGGCGCGAUAGCGACAACGUUCCCAACUAUGACAGGCAAAACGCGUGCUCCGUUGAAUGGAGUUUAUCAUG [C51U C95A U104C C116G], the “polymerase ribozyme fitness (log ratio)” value was -0.304.
In the case of GGAUCUUCUCGAUCUAACAAAAAAGACAAAUCUGCCACAAAGCUUGAGAGUAACUUCGGAUGCAGAGGCGGCAGCCUUCGGUGGCGCGAUAGCGCGAACGUUCUGAACUAUGACACGCAAAACGCGUGCUCCUUUGAAUGGAGUUUAUCAUG [C51U U53A C96G C105G G133U], the “polymerase ribozyme fitness (log ratio)” value is reported as ≤ -4.2.
In the case of GGAUCUUCUCGAUCUAACAAAAAAGACAAAUCUGCCACAAAGCUUGAGAGUAUCUUCGGAUGCAGAGGCGGCAGCCUUCGGUGGCGCGAUAGCGCCAACGUUCUCAACUAUGACACGCAAAACGCGUGCUGCGUUGAAUGGAGUUUAUCAUG [C51U C131G], the “polymerase ribozyme fitness (log ratio)” value is reported as -3.49.
With GGAUCUUCUCGAUCUAACAAAAAAGACAAAUCUGCCACAAAGCUUGAGAGUAUCUUCCGAUUCAGAGGUGGCAGCCUUCGGUGGCGCGAUAGCGCGAACGUUCUCAACUAUGACACGCAAAACGCGUGCUCCGUUGAAUGGAGUUUAUCAUG [C51U G58C G62U C69U C96G] the “polymerase ribozyme fitness (log ratio)” value was -3.67.
With GGAUCUUCUCGAUCUAACAAAAAAGACAAAUCUGCCACAAAGCUUGAGAGUAUCUUCGGAUGCAGAGGCGGCAGCCUUCGGUGGCGCGAUAGGGCCAACGUUCUCAACUAUGACACGCAAAACGCGUGCCCCGUUGAAUGGAGUAUAUCAUG [C51U C93G U130C U145A] the “polymerase ribozyme fitness (log ratio)” value was -3.53.
In the case of GGAUCUUCUCGAUCUAACAAAAAAGACAAAUCUGCCACAAAGCUUGAGAGUAUCUUCGGAUGCAGAGGCGGCAGCCUUCGGUGGCGCGAUACCGCCAACGUUCUAAACUAUGACAAGCAAAACGCGUGCUCCGUUGAAUGGAGUUUAUCAUG [C51U G92C C105A C116A], the “polymerase ribozyme fitness (log ratio)” value is reported as ≤ -4.2.

— the RNAGym collection of RNA variant scans (doi:10.1073/pnas.2313332121)
